Results published in the supplement of paper PMC9446081.
The whole screen tested about 39,000 compounds, of which about 220 (0.56%) showed activity. Some of the results follow.

What follows are compounds tested on Escherichia coli K-12 BW25113 (assay: relative growth (OD600 normalised to plate interquartile mean) (fraction); higher = less growth inhibition, active = 0.2 or less). Settings: 50 µM; LB; incubation time: overnight (16-24 h).
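Further: static incubation at 37 °C against the wild-type strain, values averaged over two biological replicates.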

| SMILES | relative growth |
| --- | --- |
| COc1ccc(S(=O)(=O)Nc2ccc3c(c2)C(=O)N([C@@H](C)CO)C[C@@H](C)[C@H](CN(C)C(=O)CCC(F)(F)F)OCCCC[C@H](C)O3)cc1 | inactive: 1 |
| Cc1cc(C)cc(OCC2CNC(=O)O2)c1 (stereo unspecified) | inactive: 1.13 |
| C[C@@H]1CN([C@@H](C)CO)C(=O)c2cc(NC(=O)Nc3ccc(C(F)(F)F)cc3)ccc2O[C@H]1CN(C)S(C)(=O)=O | inactive: 0.942 |
| Cc1noc(C)c1NC(=O)N(C)C[C@H]1Oc2c(NC(=O)c3ccc(-c4nccs4)cc3)cccc2C(=O)N([C@H](C)CO)C[C@H]1C | inactive: 0.957 |
| NCC[C@H]1CC[C@@H](NC(=O)C2CCCC2)[C@H](CO)O1 | inactive: 0.987 |
| COc1ccc(CN(C)C[C@@H]2Oc3c(NC(=O)c4ccc(-c5nccs5)cc4)cccc3C(=O)N([C@@H](C)CO)C[C@H]2C)cc1 | inactive: 1.02 |
| C[C@@H]1CN([C@H](C)CO)C(=O)c2cc(NC(=O)NC3CCCCC3)ccc2O[C@@H](C)CCCCO[C@@H]1CN(C)CC1CCCCC1 | inactive: 1.01 |
| C[C@H]1CCCCO[C@@H](CN(C)CC2CCCCC2)[C@@H](C)CN([C@@H](C)CO)C(=O)c2cc(NS(=O)(=O)c3cccs3)ccc2O1 | inactive: 0.998 |
| O=C1O[C@@H](c2ccccc2)[C@@H](c2ccccc2)N2[C@@H](c3ccc(O)cc3)[C@]3(C(=O)Nc4ccccc43)[C@@H](C(=O)Nc3nc4ccccc4s3)[C@H]12 | inactive: 1.01 |
| Cc1noc(C)c1NC(=O)N(C)C[C@H]1OCCCC[C@@H](C)Oc2ccc(NS(=O)(=O)c3cccs3)cc2C(=O)N([C@H](C)CO)C[C@H]1C | inactive: 0.992 |
| COc1ccc(CN(C)C[C@@H]2Oc3ccc(NS(=O)(=O)c4c(C)noc4C)cc3C(=O)N([C@@H](C)CO)C[C@H]2C)cc1 | inactive: 0.99 |
| CC1=NCCC2c3ccc(O)cc3NC12 (stereo unspecified) | inactive: 1.07 |
| [N-]=[N+]=NCc1ccccc1C[C@]1(C(=O)N2CCCCC2)N=C(c2ccc(OCCCO)cc2)O[C@H]1c1ccccc1 | inactive: 1.02 |
| NC(=O)c1cc(S(=O)(=O)N2CCOCC2)ccc1F | inactive: 1.02 |
| CCCCC[C@H](O)/C=C/[C@@H]1[C@H]2C/C(=C/CCCC(=O)O)O[C@@H]2C[C@H]1O | inactive: 1.01 |
| COCC(=O)Nc1ccc2c(c1)C(=O)N(C)[C@H]1CC[C@@H](CC(=O)NCc3ccc(OC)cc3)O[C@H]1CO2 | inactive: 0.981 |
| C[C@H](CO)N1C[C@H](C)[C@H](CN(C)C(=O)NC2CCCCC2)Oc2c(NC(=O)Nc3ccc(C(F)(F)F)cc3)cccc2C1=O | inactive: 0.933 |
| C[C@@H]1CCCCO[C@H](CN(C)C(=O)Nc2ccc(F)cc2)[C@@H](C)CN([C@@H](C)CO)C(=O)c2cc(NS(=O)(=O)c3cccs3)ccc2O1 | inactive: 0.995 |
| C[C@H](CO)N1C[C@H](C)[C@@H](CN(C)C(=O)Nc2cccc3ccccc23)Oc2c(NC(=O)C3CCCCC3)cccc2C1=O | inactive: 1 |
| COCC#Cc1ccc2c(c1)O[C@H](CN(C)C(=O)CN(C)C)[C@@H](C)CN([C@H](C)CO)S2(=O)=O | inactive: 1 |
| C[C@@H]1CCCCO[C@@H](CN(C)Cc2ccc3c(c2)OCO3)[C@@H](C)CN([C@H](C)CO)C(=O)c2cc(NC(=O)Nc3ccccc3)ccc2O1 | inactive: 0.997 |

| SMILES | relative growth |
| --- | --- |
| COc1ccc(NC(=O)N(C)C[C@H]2OCCCC[C@@H](C)Oc3ccc(NS(=O)(=O)c4ccccc4)cc3C(=O)N([C@H](C)CO)C[C@H]2C)cc1 | inactive: 1.03 |
| O=C(C[C@@H]1CC[C@H](NC(=O)Cc2ccccn2)[C@H](CO)O1)NCCc1ccncc1 | inactive: 1.01 |
| C[C@@H]1CCCCO[C@H](CN(C)Cc2ccc(C(=O)Nc3ccccc3N)cc2)[C@@H](C)CN([C@H](C)CO)C(=O)c2cc(NC(=O)c3ccccc3)ccc2O1 | inactive: 0.993 |
| CC(C)NC(=O)N(C)C[C@H]1Oc2ccc(NS(=O)(=O)c3ccc(F)cc3)cc2CC(=O)N([C@H](C)CO)C[C@@H]1C | inactive: 1.01 |
| C[C@H]1CN([C@@H](C)CO)C(=O)c2cc(C#CC3(O)CCCC3)cnc2O[C@@H]1CN(C)C(=O)Cc1ccncc1 | inactive: 0.989 |
| COc1ccc(NC(=O)Nc2ccc3c(c2)C(=O)N([C@@H](C)CO)C[C@H](C)[C@@H](CN(C)Cc2ccc4c(c2)OCO4)OCCCC[C@H](C)O3)cc1 | inactive: 0.994 |
| S=c1[nH]cn[nH]1 | inactive: 0.991 |
| Cc1ccc(S(=O)(=O)N2C[C@H](O)COC[C@H]3O[C@@H](CC(=O)N4CCc5ccccc5C4)CC[C@@H]32)cc1 | inactive: 0.988 |
| COc1ccc(C(=O)O)c(O)c1OC | inactive: 1.03 |
| COc1ccc(NC(=O)Nc2ccc3c(c2)C(=O)N([C@@H](C)CO)C[C@@H](C)[C@@H](CN(C)C(=O)NC(C)C)OCCCC[C@@H](C)O3)cc1 | inactive: 0.98 |
| COCc1cc(C)nc(N)c1C#N | inactive: 0.976 |
| COCC#Cc1ccc2c(c1)O[C@H](CN(C)Cc1ccc3c(c1)OCO3)[C@H](C)CN([C@H](C)CO)S2(=O)=O | inactive: 1.01 |
| CC12CCC(=O)C=C1CCC1C2C(O)CC2(C)C1CCC2(O)C(=O)CO (stereo unspecified) | inactive: 1.03 |
| C[C@H](CO)N1C[C@H](C)[C@@H](CN(C)C(=O)C2CCOCC2)Oc2cc(-c3ccc(F)cc3)ccc2S1(=O)=O | inactive: 1.01 |
| COC(=O)CN1C(=O)COc2ccc(C)cc21 | inactive: 0.983 |
| Cc1noc(C)c1S(=O)(=O)N(C)C[C@@H]1OCCCC[C@@H](C)Oc2ccc(NC(=O)Nc3ccccc3)cc2C(=O)N([C@H](C)CO)C[C@H]1C | inactive: 0.972 |
| COc1cccc(C(=O)Nc2ccc3c(c2)C(=O)N(C)[C@H]2CC[C@H](CC(=O)NCC(F)(F)F)O[C@@H]2CO3)c1 | inactive: 1.04 |
| C[C@@H]1CN([C@@H](C)CO)C(=O)c2cccc(NS(=O)(=O)c3ccc(Cl)cc3)c2O[C@H]1CN(C)Cc1ccc(Cl)c(Cl)c1 | inactive: 1.05 |
| C[C@H](CO)N1C[C@H](C)[C@H](CN(C)Cc2ccc(C(=O)Nc3ccccc3N)cc2)Oc2ccc(NS(C)(=O)=O)cc2CC1=O | inactive: 1 |
| C[C@@H]1CN([C@H](C)CO)C(=O)c2cc(NS(C)(=O)=O)ccc2O[C@H]1CN(C)Cc1ccc(C(=O)O)cc1 | inactive: 0.984 |
| CN1CCN(C(=O)C[C@@H]2CC[C@H]3[C@@H](COC[C@@H](O)CN3C(=O)Nc3cc(Cl)cc(Cl)c3)O2)CC1 | inactive: 0.927 |

| SMILES | relative growth |
| --- | --- |
| C[C@H](CO)N1C[C@H](C)[C@H](CN(C)C(=O)C2CCOCC2)Oc2cc(-c3ccc(F)cc3)ccc2S1(=O)=O | inactive: 0.897 |
| COc1ccc(NC(=O)N(C)C[C@H]2OCCCC[C@@H](C)Oc3ccc(NC(=O)C4CCCCC4)cc3C(=O)N([C@H](C)CO)C[C@H]2C)cc1 | inactive: 0.992 |
| COc1ccc(S(=O)(=O)Nc2ccc3c(c2)CC(=O)N([C@H](C)CO)C[C@@H](C)[C@H](CN(C)S(=O)(=O)c2ccc(F)cc2)O3)cc1 | inactive: 1.01 |
| CN(C)CCCNC(=O)C[C@@H]1CC[C@@H]2[C@H](COC[C@H](O)CN2S(=O)(=O)c2ccc(Cl)cc2)O1 | inactive: 1 |
| COCC#Cc1ccc([C@@H]2[C@@H](CO)N3C(=O)CN(C(=O)CN4CCOCC4)C[C@@H]23)cc1 | inactive: 1 |
| Cc1nc(COP(=O)(O)O)cc2c1[O][Mn][O]c1c(cc(COP(=O)(O)O)nc1C)CN(CC(=O)O)CCN(CC(=O)O)C2 | inactive: 0.971 |
| CCCNC(=O)N1C[C@@H](O)COC[C@H]2O[C@@H](CC(=O)NCCCN3CCOCC3)CC[C@@H]21 | inactive: 0.989 |
| C[C@H]1CCCCO[C@@H](CN(C)Cc2ccc3c(c2)OCO3)[C@@H](C)CN([C@@H](C)CO)C(=O)c2cc(NC(=O)CCC(F)(F)F)ccc2O1 | inactive: 0.995 |
| COCCCN1C(=O)[C@@]2(Cc3ccccc31)c1ccccc1C(=O)N(C1CCCCC1)[C@H]2c1ccc(CO)cc1 | inactive: 0.954 |
| C[C@H](CO)N1C[C@H](C)[C@@H](CN(C)C(=O)NC2CCCCC2)Oc2c(NC(=O)c3cnccn3)cccc2C1=O | inactive: 0.992 |
| Cc1ccnc(NC(=O)Cn2cnc3c2c(=O)n(C)c(=O)n3C)c1 | inactive: 0.996 |
| C[C@H](CO)N1C[C@H](C)[C@@H](CN(C)C(=O)CN2CCOCC2)Oc2cc(Br)ccc2S1(=O)=O | inactive: 0.882 |
| CCCN(C)C[C@H]1OCCCC[C@@H](C)Oc2ccc(NS(=O)(=O)c3cn(C)cn3)cc2C(=O)N([C@H](C)CO)C[C@@H]1C | inactive: 1.01 |
| O=C(NO)c1ccc(C(=O)N/N=C/[C@H](O)[C@@H](O)[C@H](O)CO)cc1 | inactive: 1.02 |
| CN1CCN(C(=O)C[C@H]2C[C@@H]3c4cc(NC(=O)c5ccc6c(c5)OCO6)ccc4O[C@@H]3[C@@H](CO)O2)CC1 | inactive: 0.997 |
| O=C(C[C@H]1CC[C@H]2[C@@H](COC[C@@H](O)CN2S(=O)(=O)c2ccccc2)O1)NCCN1CCCCC1 | inactive: 1.02 |
| CC(C)NC(=O)Nc1ccc2c(c1)CC(=O)N([C@H](C)CO)C[C@H](C)[C@H](CN(C)S(=O)(=O)c1ccc(Cl)cc1)O2 | inactive: 1.01 |
| C[C@@H]1CCCCO[C@@H](CN(C)Cc2ccccc2)[C@@H](C)CN([C@H](C)CO)C(=O)c2cc(NC(=O)Nc3ccc4c(c3)OCO4)ccc2O1 | inactive: 0.951 |
| CC(C)NC(=O)Nc1ccc2c(c1)CC(=O)N([C@@H](C)CO)C[C@@H](C)[C@@H](CN(C)S(=O)(=O)c1ccc(F)cc1)O2 | inactive: 0.982 |
